Assay results published in article PMC12820563.
Some of the results follow. The list includes weakly bound sequences.

molecular target: T1, MBP-FoxP3dN (UniProt Q99JB6); assay: PD-seq (MBP pull-down with sequencing); conditions: 20 mM Tris-HCl pH 7.5, 100 mM NaCl, 1.5 mM MgCl2, 0.4 uM protein, 0.1 uM dsDNA library, 30 min, room temperature, amylose pull-down; high values mean tight binding; double strand, one strand shown
T1 sequence: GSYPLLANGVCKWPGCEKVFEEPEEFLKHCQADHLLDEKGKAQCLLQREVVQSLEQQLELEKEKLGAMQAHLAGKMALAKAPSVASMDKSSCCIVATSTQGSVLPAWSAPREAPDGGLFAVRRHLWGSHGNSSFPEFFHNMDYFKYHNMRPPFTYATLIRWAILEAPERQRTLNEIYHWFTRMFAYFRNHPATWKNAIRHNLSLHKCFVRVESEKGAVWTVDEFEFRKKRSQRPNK

Sequence | binding signal (RPM ratio (pull-down/input))
GATGATTGTTCTCCCAGCTGATGAATTACGTCTTTCGAGTAAACAAATTTTCCTAATCTTTCTGTTCAAGCGCCATCTAC | 0.702
GATGATTGTTCTCCCAGCTGATGAATTCACTGGGTCGAGTAAACAAATTTTCCTAATCTTTCTGTTCAAGCGCCATCTAC | 0.226
GATGATTGTTCTCCCAGCTGATGAATTGCCACAATCGAGTAAACAAATTTTCCTAATCTTTCTGTTCAAGCGCCATCTAC | 5.25
GATGATTGTTCTCCCAGCTGATGAATTCCAGGCCTCGAGTAAACAAATTTTCCTAATCTTTCTGTTCAAGCGCCATCTAC | 0.422
GATGATTGTTCTCCCAGCTGATGAATTAAAGGTGTCGAGTAAACAAATTTTCCTAATCTTTCTGTTCAAGCGCCATCTAC | 0.396
GATGATTGTTCTCCCAGCTGATGAATTCTGCACCTCGAGTAAACAAATTTTCCTAATCTTTCTGTTCAAGCGCCATCTAC | 2.03
GATGATTGTTCTCCCAGCTGATGAATTAGAGTCTTCGAGTAAACAAATTTTCCTAATCTTTCTGTTCAAGCGCCATCTAC | 0.56
GATGATTGTTCTCCCAGCTGATGAATTTCAGCGCTCGAGTAAACAAATTTTCCTAATCTTTCTGTTCAAGCGCCATCTAC | 0.363
GATGATTGTTCTCCCAGCTGATGAATTAACAAATTCGAGTAAACAAATTTTCCTAATCTTTCTGTTCAAGCGCCATCTAC | 0.494
GATGATTGTTCTCCCAGCTGATGAATTTACGGCATCGAGTAAACAAATTTTCCTAATCTTTCTGTTCAAGCGCCATCTAC | 1.03
GATGATTGTTCTCCCAGCTGATGAATTGATTGGATCGAGTAAACAAATTTTCCTAATCTTTCTGTTCAAGCGCCATCTAC | 0.484
GATGATTGTTCTCCCAGCTGATGAATTTGTAGGTTCGAGTAAACAAATTTTCCTAATCTTTCTGTTCAAGCGCCATCTAC | 4.05
GATGATTGTTCTCCCAGCTGATGAATTTGCCTTGTCGAGTAAACAAATTTTCCTAATCTTTCTGTTCAAGCGCCATCTAC | 1.15
GATGATTGTTCTCCCAGCTGATGAATTACAACATTCGAGTAAACAAATTTTCCTAATCTTTCTGTTCAAGCGCCATCTAC | 1.94
GATGATTGTTCTCCCAGCTGATGAATTTCTTCCGTCGAGTAAACAAATTTTCCTAATCTTTCTGTTCAAGCGCCATCTAC | 0.183
GATGATTGTTCTCCCAGCTGATGAATTAAGGCTATCGAGTAAACAAATTTTCCTAATCTTTCTGTTCAAGCGCCATCTAC | 0.711
GATGATTGTTCTCCCAGCTGATGAATTATCTTTATCGAGTAAACAAATTTTCCTAATCTTTCTGTTCAAGCGCCATCTAC | 0.825
GATGATTGTTCTCCCAGCTGATGAATTGAGTACCTCGAGTAAACAAATTTTCCTAATCTTTCTGTTCAAGCGCCATCTAC | 0.541
GATGATTGTTCTCCCAGCTGATGAATTATACGCTTCGAGTAAACAAATTTTCCTAATCTTTCTGTTCAAGCGCCATCTAC | 0.584
GATGATTGTTCTCCCAGCTGATGAATTTTACAAATCGAGTAAACAAATTTTCCTAATCTTTCTGTTCAAGCGCCATCTAC | 0.24

Sequence | binding signal (RPM ratio (pull-down/input))
GATGATTGTTCTCCCAGCTGATGAATTATGATTCTCGAGTAAACAAATTTTCCTAATCTTTCTGTTCAAGCGCCATCTAC | 1.48
GATGATTGTTCTCCCAGCTGATGAATTCTCCTGCTCGAGTAAACAAATTTTCCTAATCTTTCTGTTCAAGCGCCATCTAC | 0.233
GATGATTGTTCTCCCAGCTGATGAATTTCTGCAGTCGAGTAAACAAATTTTCCTAATCTTTCTGTTCAAGCGCCATCTAC | 0.531
GATGATTGTTCTCCCAGCTGATGAATTTTTATAATCGAGTAAACAAATTTTCCTAATCTTTCTGTTCAAGCGCCATCTAC | 0.44
GATGATTGTTCTCCCAGCTGATGAATTCATGTGGTCGAGTAAACAAATTTTCCTAATCTTTCTGTTCAAGCGCCATCTAC | 0.694
GATGATTGTTCTCCCAGCTGATGAATTGTACCCATCGAGTAAACAAATTTTCCTAATCTTTCTGTTCAAGCGCCATCTAC | 0.472
GATGATTGTTCTCCCAGCTGATGAATTGACGGCATCGAGTAAACAAATTTTCCTAATCTTTCTGTTCAAGCGCCATCTAC | 0.813
GATGATTGTTCTCCCAGCTGATGAATTGGGTGGGTCGAGTAAACAAATTTTCCTAATCTTTCTGTTCAAGCGCCATCTAC | 0.552
GATGATTGTTCTCCCAGCTGATGAATTCGGGCTCTCGAGTAAACAAATTTTCCTAATCTTTCTGTTCAAGCGCCATCTAC | 0.313
GATGATTGTTCTCCCAGCTGATGAATTAGCCCTCTCGAGTAAACAAATTTTCCTAATCTTTCTGTTCAAGCGCCATCTAC | 0.33
GATGATTGTTCTCCCAGCTGATGAATTGTAGCCGTCGAGTAAACAAATTTTCCTAATCTTTCTGTTCAAGCGCCATCTAC | 0.622
GATGATTGTTCTCCCAGCTGATGAATTAGTATTTTCGAGTAAACAAATTTTCCTAATCTTTCTGTTCAAGCGCCATCTAC | 2.03
GATGATTGTTCTCCCAGCTGATGAATTATGATGGTCGAGTAAACAAATTTTCCTAATCTTTCTGTTCAAGCGCCATCTAC | 1.33
GATGATTGTTCTCCCAGCTGATGAATTAGTTTGTTCGAGTAAACAAATTTTCCTAATCTTTCTGTTCAAGCGCCATCTAC | 6.22
GATGATTGTTCTCCCAGCTGATGAATTAACTTGATCGAGTAAACAAATTTTCCTAATCTTTCTGTTCAAGCGCCATCTAC | 0.242
GATGATTGTTCTCCCAGCTGATGAATTAACCTAATCGAGTAAACAAATTTTCCTAATCTTTCTGTTCAAGCGCCATCTAC | 0.239
GATGATTGTTCTCCCAGCTGATGAATTACATACGTCGAGTAAACAAATTTTCCTAATCTTTCTGTTCAAGCGCCATCTAC | 0.558
GATGATTGTTCTCCCAGCTGATGAATTGACCCTTTCGAGTAAACAAATTTTCCTAATCTTTCTGTTCAAGCGCCATCTAC | 0.338
GATGATTGTTCTCCCAGCTGATGAATTGATCCGTTCGAGTAAACAAATTTTCCTAATCTTTCTGTTCAAGCGCCATCTAC | 0.278
GATGATTGTTCTCCCAGCTGATGAATTTCCGTTGTCGAGTAAACAAATTTTCCTAATCTTTCTGTTCAAGCGCCATCTAC | 0.56
